Laboratory results: the supplement of paper PMC3334620
In all, about 33,000 sequences were measured (“E-score (-0.5 to 0.5)”: median about -0.054, highest 2% from about 0.35 on). The list shows a part of the results.

Each sequence was assayed against T1, Stb5 (UniProt P38699) (assay: PBM E-score (8-mer binding enrichment) (E-score (-0.5 to 0.5)); higher = stronger / more preferred TF binding; most listed sequences are background and not binding sites). Details: protein concentration: 200 nM; construct: GST-full length.
T1 sequence: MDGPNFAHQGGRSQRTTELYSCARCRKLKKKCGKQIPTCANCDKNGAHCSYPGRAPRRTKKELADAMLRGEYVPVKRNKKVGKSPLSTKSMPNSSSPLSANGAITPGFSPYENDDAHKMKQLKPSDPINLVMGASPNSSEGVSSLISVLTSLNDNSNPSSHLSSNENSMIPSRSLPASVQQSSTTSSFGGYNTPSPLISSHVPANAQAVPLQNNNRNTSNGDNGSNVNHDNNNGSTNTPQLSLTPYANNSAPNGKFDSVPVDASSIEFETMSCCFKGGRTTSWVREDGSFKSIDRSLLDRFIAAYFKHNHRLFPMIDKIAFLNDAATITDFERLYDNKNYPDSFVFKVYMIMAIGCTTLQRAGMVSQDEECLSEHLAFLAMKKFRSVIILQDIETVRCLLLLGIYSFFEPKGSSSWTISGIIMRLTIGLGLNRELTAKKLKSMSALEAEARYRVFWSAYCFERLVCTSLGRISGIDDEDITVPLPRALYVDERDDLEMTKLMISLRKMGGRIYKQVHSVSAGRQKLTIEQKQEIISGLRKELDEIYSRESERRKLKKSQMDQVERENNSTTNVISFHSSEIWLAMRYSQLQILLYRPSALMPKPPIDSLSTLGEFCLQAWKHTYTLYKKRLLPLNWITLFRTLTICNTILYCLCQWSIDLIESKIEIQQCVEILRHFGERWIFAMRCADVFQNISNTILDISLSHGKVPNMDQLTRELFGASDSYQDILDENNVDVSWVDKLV
Method in brief: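 Universal all-10-mer Agilent arrays, double-stranded by primer extension on fresh or once-stripped slides, were probed with about 100-200 nM GST-tagged yeast transcription factors made by PURExpress. Fluorescent anti-GST detected bound protein, and masliner normalised the scans. E-scores from the Universal PBM Analysis Suite were given to each ungapped eight-base word pooled with its reverse complement.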

Sequence	PBM E-score
GAATTCCC	0.189
CCTTGCCA	-0.122
ATACTAAG	-0.0743
ATGCTGCC	-0.0035
CCGAGAAA	0.18
CCCTTTGA	-0.0311
AAACCTAG	-0.17
GCAGCCCA	-0.264
ATATAACC	0.268
GCCGCACA	0.206
AGTTTGGA	-0.153
AAAATATA	0.0784
ATGCAAGG	-0.104
GCCAGGAC	-0.187
TAGGGACA	-0.0568
GGAAGAAA	-0.0947
AAGAAGGG	-0.124
GACCGTGA	0.123
CACCCATC	-0.0507
AAAGCAAA	-0.197
AAACAGGT	-0.0257
CAATTAAG	0.157
AGCTGTTC	-0.207
CTGTGGCC	-0.016
AATCTCCC	-0.0498

Sequence	PBM E-score
AAGTTCAA	-0.0137
GAGCCAAA	-0.0585
TCAACTCA	-0.0658
AATCAGGT	-0.0618
AGCTACCA	-0.194
GATTTGCC	0.0681
CTATAAAG	0.156
CCGTTACG	0.271
GACGAGTC	-0.227
AGCGTAAC	0.00827
AAAGTTGG	-0.378
AAAATGAT	-0.1
TAATGATA	-0.0791
GGTGCCAC	0.148
CGCTGCGA	0.135
CTTTCCCA	-0.119
ACGCTCTA	-0.117
CTCCGTCA	0.297
AGTGGGTC	0.0423
AGCGCAAG	-0.159
CCTGGCCC	-0.191
CTCAATCA	-0.00421
AGGTTGCC	-0.132
AATCTGCT	-0.0835
AGGCACCT	-0.0254

Sequence	PBM E-score
ACGTAACG	0.0237
CTAAGTAA	-0.147
AGCGTGCG	0.0857
CCATATAA	-0.211
CCGCCCTA	0.234
AATACGAA	-0.142
GTAGAAGA	-0.259
CATTTAGC	0.11
CACAACCC	-0.156
GAAGAGAC	-0.0478
AACAGCTA	-0.118
CACATAAG	-0.0854
GCAAAGGC	0.115
ATTAGAAA	-0.0635
CACCGGGA	0.256
AGTATACT	-0.317
AGCCAACT	-0.317
GAGCGTAA	0.0282
ACGCCGAT	0.35
GGAAGACC	0.195
AACTGATT	-0.282
CAGGGAAC	-0.192
AATTCAGT	-0.22
AATACGCT	0.0294
AAGAACCA	-0.153

Sequence	PBM E-score
AAATGTGC	0.111
GGCTCCGA	0.0871
TGCGACCA	-0.0953
CGTGCAGA	-0.0929
CCGTGTGA	0.101
AATTAAGG	-0.0572
CATTCGAG	-0.136
TCTCGGAA	-0.0692
AGCCAAAG	-0.145
GATGTAGA	-0.0699
ATTCGGAC	0.224
GGCACCAA	0.208
ATCGGTCG	0.155
ACTAATAT	0.135
AACGCAAC	-0.18
GTAAATGA	0.0964
AAAGCTCG	-0.16
GGTCTACA	-0.0107
AATTACAT	0.00227
CGGGACAA	0.214
CATATGGC	-0.0135
ACATGAAA	-0.261
CAGATGGC	-0.0723
GGTCACTA	-0.0402
ATTTGAGG	-0.0669

Sequence	PBM E-score
GTTGGTGA	-0.0441
GCTAACCC	-0.00973
CCCAGCAA	-0.134
GTCAAGGA	-0.0637
ATAGCTAG	-0.256
CGAGAGGA	-0.296
CGACGGTA	0.352
CATTGCAG	-0.193
CCAGAGAC	-0.174
AGTTGACC	0.0522
GATTTCTA	0.168
ACGAATGG	-0.142
AATGCGCT	-0.125
CGCAACCA	0.0261
CAACGCTA	-0.0671
CTTTGGGC	0.19
ACGCACGG	0.141
CAGGTGCC	-0.0602
GACTCATC	-0.21
ATTCGGTA	0.145
AGATGGAC	0.0541
GTCGATAA	-0.105
CAACTTGA	-0.00866
ATGGGGGA	-0.153
ACTGAGCA	-0.366

Sequence	PBM E-score
AAAGAAGT	-0.0835
TCATCACA	-0.313
GAAGATTA	0.0338
AACGAATT	-0.088
TAGGTGCA	-0.342
ACACAGCT	-0.0993
CCAACAAA	-0.0678
ACAGGAAG	-0.217
GAAGAACA	-0.0778
AAACCTAA	0.0896
CGACGGCG	0.328
CGCCAATA	0.0277
ACTTACCT	-0.0336
AATGCCTA	-0.0895
GAAGTAAA	-0.0343
AGTGAGAC	-0.111
TCATGGGA	-0.273
CTAGGCGC	-0.0874
CTATACCA	-0.0493
CGAGTCAG	-0.0693
AACTTGAT	-0.0772
GGACGTAC	0.0333
AGTAGTAT	-0.174
ACAGCAGC	-0.164
CACTCCAG	-0.215

Sequence	PBM E-score
CAGCTGAG	-0.231
CTAGTCGA	-0.0352
ACCAGACA	-0.0752
GACCATGA	-0.00839
CTGAACCA	-0.25
TGAATCCA	-0.18
GTCCAAAA	0.163
AATCGTGC	-0.0497
CAACGAGC	-0.172
AACGACAT	0.0144
AAAAAGTC	0.175
TGCAGACA	-0.164
AAGGCTGC	-0.163
CTTTCAGA	-0.124
GGCCTCAC	-0.0859
AAACTGTG	-0.215
GATGACAA	-0.0705
AGGCGCTC	-0.0484
TAACTCAA	-0.142
CCTTGCAG	-0.122
GCGAACAC	-0.109
ATCTGCTG	-0.241
